The text below walks through data of the antibiotic and cytotoxicity screens of Wong et al. (2023).

The structures appear in SMILES notation. Some of the results follow.

Experiment [1] has as its system HSkMC (human skeletal muscle cells). Briefly: cytotoxicity call (relative viability < 0.9). The note with it: 10 µM.
Experiment [2] deals with HepG2. Nature of the experiment: cytotoxicity call (relative viability < 0.9). The note with it: 10 µM.
Experiment [3] relates to S. aureus RN4220. Nature of the experiment: growth inhibition call (relative growth <= 0.2). The following applies: 50 µM.

For `C[C@H]1CN([C@@H](C)CO)C(=O)c2cccc(NC(=O)C3CC3)c2O[C@@H]1CN(C)C(=O)Nc1ccc2c(c1)OCO2`, the cytotoxicity call in experiment [1] and in experiment [2] was “inactive” in each case. Besides, in experiment [3], the growth inhibition call was “inactive”.

On to `C[C@@H]1CN([C@@H](C)CO)C(=O)c2cc(NC(=O)Nc3cccc4ccccc34)ccc2O[C@@H](C)CCCCO[C@H]1CN(C)Cc1ccc(Cl)c(Cl)c1`, for which the cytotoxicity call in experiment [1] and in experiment [2] was “inactive” in each case. In experiment [3], the growth inhibition call is “inactive”.

Consider `CCCNC(=O)N(C)C[C@@H]1Oc2cc(-c3ccc(C)cc3)ccc2S(=O)(=O)N([C@@H](C)CO)C[C@@H]1C`, for which the cytotoxicity call in experiment [1] and in experiment [2] was “inactive” in each case. Moreover, in experiment [3], the growth inhibition call is “inactive”.

In the case of `C[C@@H]1CN([C@@H](C)CO)C(=O)c2cc(NC(=O)Nc3cccc4ccccc34)ccc2O[C@@H]1CN(C)C(=O)Nc1ccc2c(c1)OCO2`, the cytotoxicity call in experiment [1] and in experiment [2] was “inactive” each time. Moreover, the growth inhibition call in experiment [3] was “inactive”.

In the case of `O=C(C[C@H]1CC[C@H]2[C@@H](COC[C@H](O)CN2S(=O)(=O)c2ccc(F)cc2)O1)N[C@H]1CCN(Cc2ccccc2)C1`, the cytotoxicity call in experiment [1] and in experiment [2] was “inactive” throughout. Besides, in experiment [3], the growth inhibition call was “inactive”.

As to `NCC[C@@H]1CC[C@@H](NC(=O)C2CCCCC2)[C@@H](CO)O1`, the cytotoxicity call in experiment [1] and in experiment [2] was “inactive” throughout. Besides, the growth inhibition call in experiment [3] is “inactive”.

Regarding `CCCCNC(=O)N1C[C@@H]2[C@H](CN)[C@@H]2C1`, the cytotoxicity call in experiment [1] and in experiment [2] was “inactive” each time. In addition, the growth inhibition call in experiment [3] was “inactive”.

As to `COc1ccc(CN(C)C[C@@H]2OCCCC[C@@H](C)Oc3ccc(NS(=O)(=O)c4ccccc4)cc3C(=O)N([C@H](C)CO)C[C@H]2C)cc1`, the cytotoxicity call in experiment [1] and in experiment [2] was “inactive” throughout. Moreover, the growth inhibition call in experiment [3] is “inactive”.

Consider `N[C@@H](CC(=O)O)C(=O)O`, for which the cytotoxicity call in experiment [1] and in experiment [2] was “inactive” throughout. Further, in experiment [3], the growth inhibition call was “inactive”.

For `COc1ccc(NC(=O)Nc2ccc3c(c2)C(=O)N([C@@H](C)CO)C[C@@H](C)[C@H](CN(C)C(=O)Nc2cccc4ccccc24)OCCCC[C@H](C)O3)cc1`, the cytotoxicity call in experiment [1] and in experiment [2] was “inactive” each time. Further, the growth inhibition call in experiment [3] was “inactive”.

On to `C[C@@H]1CN([C@H](C)CO)C(=O)c2cc(NC(=O)CCN3CCOCC3)ccc2O[C@@H]1CN(C)S(C)(=O)=O`, for which the cytotoxicity call in experiment [1] and in experiment [2] was “inactive” throughout. The growth inhibition call in experiment [3] is “inactive”.

For `O=C(Cn1c(CO)c[nH]c1=S)NC1CC1`, the cytotoxicity call in experiment [1] and in experiment [2] was “inactive” each time. Moreover, the growth inhibition call in experiment [3] is “inactive”.

Turning to `C[C@@H]1CCCCO[C@@H](CN(C)CC2CCCCC2)[C@H](C)CN([C@@H](C)CO)C(=O)c2cc(NS(=O)(=O)c3ccc(Cl)cc3)ccc2O1`, the cytotoxicity call in experiment [1] and in experiment [2] was “inactive” each time. Further, in experiment [3], the growth inhibition call was “inactive”.

Turning to `C[C@@H]1CN([C@@H](C)CO)C(=O)c2cc(NC(=O)Cn3cnnn3)ccc2O[C@@H]1CN(C)Cc1ccccc1`, the cytotoxicity call in experiment [1] and in experiment [2] was “inactive” in each case. The growth inhibition call in experiment [3] is “inactive”.

`CC(=O)O[C@@H]1[C@@H](OC(C)=O)[C@H](C)O[C@@H](O[C@H]2[C@H](OC/C=C(\C)CC/C=C(\C)CC/C=C(\C)CCC=C(C)C)O[C@H](CO[C@@H]3O[C@@H](C)[C@H](O)[C@@H](O)[C@H]3O)[C@@H](O)[C@@H]2O)[C@@H]1OC(C)=O`: the cytotoxicity call in experiment [1] and in experiment [2] was “inactive” in each case. The growth inhibition call in experiment [3] is “inactive”.

On to `CN1CCN(C(=O)C[C@H]2CC[C@H]3[C@@H](COC[C@@H](O)CN3CC3CCCC3)O2)CC1`, for which the cytotoxicity call in experiment [1] and in experiment [2] was “inactive” each time. Besides, the growth inhibition call in experiment [3] was “inactive”.

In the case of `CCNC(=O)[C@H]1O[C@@H](n2cnc3c(N)nc(NCCc4ccc(CCC(=O)O)cc4)nc32)[C@H](O)[C@@H]1O`, the cytotoxicity call in experiment [1] and in experiment [2] was “inactive” each time. In addition, the growth inhibition call in experiment [3] was “inactive”.

Turning to `CC(C)NCCCn1c(Sc2cc3c(cc2I)OCO3)nc2c(N)ncnc21`, in experiment [1], the cytotoxicity call is “inactive”. The cytotoxicity call in experiment [2] was “active”. Moreover, the growth inhibition call in experiment [3] was “inactive”.

As for `C[C@H](CO)N1C[C@H](C)[C@H](CN(C)C(=O)c2ccncc2)OCCCC[C@H](C)Oc2ccc(NC(=O)CCCCCC(=O)Nc3ccccc3N)cc2C1=O`, the cytotoxicity call in experiment [1] and in experiment [2] was “inactive” in each case. In addition, the growth inhibition call in experiment [3] was “inactive”.

As for `NCCOB(c1ccccc1)c1ccccc1`, the cytotoxicity call in experiment [1] and in experiment [2] was “inactive” each time. Further, the growth inhibition call in experiment [3] is “inactive”.

With `CCCCC[C@@H](C[C@@H](CC(=O)O)O[C@H]1O[C@@H](CO)[C@@H](O)[C@@H](O)[C@@H]1O)OC(=O)C[C@H](O)C[C@H](CCCCC)O[C@H]1O[C@@H](CO)[C@@H](O)[C@@H](O)[C@@H]1O`, the cytotoxicity call in experiment [1] and in experiment [2] was “inactive” each time. The growth inhibition call in experiment [3] was “inactive”.

On to `O=C(C[C@@H]1C[C@H]2c3cc(NS(=O)(=O)c4ccc(F)cc4)ccc3O[C@H]2[C@@H](CO)O1)NCc1ccccc1F`, for which the cytotoxicity call in experiment [1] and in experiment [2] was “inactive” throughout. For the same molecule, in experiment [3], the growth inhibition call is “inactive”.

As to `C[C@H](CO)N1C[C@H](C)[C@@H](CN(C)S(=O)(=O)c2ccc(C#N)cc2)OCc2cnnn2CCCC1=O`, the cytotoxicity call in experiment [1] and in experiment [2] was “inactive” throughout. The growth inhibition call in experiment [3] is “inactive”.

As to `CCC(=O)N(C)C[C@H]1Oc2ncc(C#C[C@@H](C)O)cc2C(=O)N([C@H](C)CO)C[C@@H]1C`, the cytotoxicity call in experiment [1] and in experiment [2] was “inactive” in each case. The growth inhibition call in experiment [3] is “inactive”.

Turning to `C[C@H]1CN([C@@H](C)CO)C(=O)Cc2cc(NC(=O)Cn3cnnn3)ccc2O[C@@H]1CN(C)CC1CC1`, the cytotoxicity call in experiment [1] and in experiment [2] was “inactive” in each case. For the same molecule, the growth inhibition call in experiment [3] was “inactive”.
